Test results from PubChem BioAssay AID1508623 (National Center for Advancing Translational Sciences (NCATS), 2021).
The whole screen tested about 48,000 compounds, of which about 450 (0.94%) were called active. Inconclusive results (about 19%) are left out. Calls come from the whole dose curve; as a rule, active = well fitted inhibition curve with a large enough effect; inconclusive = small, poorly fitted or top-dose-only effect; inactive = no such curve, though single readings can be large or run the other way. This is one part of the list.

Test: Primary qHTS for Identification of Small Molecule Inhibitors of Huntingtin Promoter Activity; note: nearly all actives have a fitted effect of over 50% in size
Details: HEK293 HTT promoter firefly luciferase reporter (activity 0% = vehicle and -100% = no light), 24 h; activity change, negative = inhibition: at the top concentration
Outline: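 HEK293 cells carrying firefly luciferase reporters were seeded at 2,500 per well in Opti-MEM and cultured for 24 h. They were then treated with compounds at up to 57.5 uM final for 24 h at 37 degrees C before Dual-Glo luminescence readout.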

SMILES | activity change, negative = inhibition
CC[N+]1(CC)CCC(OC(=O)C(O)(c2ccccc2)c2ccccc2)C1 (stereo not given) | inactive: -4.66%
C=CCC1([C@H](C)CCC)C(=O)NC(=O)NC1=O | inactive: -13.4% [at 116 µM]
O=c1[nH]c2ccccc2c(=O)n1-c1ccc(Cl)c(Cl)c1 | inactive: 4.17%
O=C(O)c1ccc(=O)[nH]c1 | inactive: -1.21%
O=C1CC(c2ccc(Br)cc2)c2c(c3ccccc3oc2=O)O1 (stereo not given) | inactive: -19.3%
Cc1sc2c(c1C)C(c1ccc(Cl)cc1)=N[C@@H](CC(=O)OC(C)(C)C)c1nnc(C)n1-2 | inactive: -24.8%
CCN1CCCC1CNC(=O)C(O)(c1ccccc1)c1ccccc1 (stereo not given) | inactive: 6.08%
C[C@]12CC[C@H](O)CC1=CC[C@H]1[C@H]3CCC(=O)[C@@]3(C)CC[C@@H]12 | inactive: -11.3%
C[C@@H]1CN(C2CCC(C#N)(c3ccc(F)cc3)CC2)CC[C@]1(C(=O)O)c1ccccc1 (stereo not given in full) | inactive: 1.86%
C=Cc1ccc(Cn2c(C)c(CNCCc3cc(OC)ccc3OC)c(C(=O)O)c2C)cc1 | inactive: 6.34%
CCC(=O)O[C@H]1CC[C@H]2[C@@H]3CCC4=CC(=O)CC[C@]4(C)[C@H]3CC[C@]12C | inactive: -6.56%
COc1cccc([C@@]2(O)CCCC[C@@H]2CN(C)C)c1 | inactive: 2.77%
CO[C@]12CC[C@@]3(C[C@@H]1[C@](C)(O)C(C)(C)C)[C@@H]1Cc4ccc(O)c5c4[C@@]3(CCN1CC1CC1)[C@H]2O5 | inactive: -21.2% [at 116 µM]
CCCCc1nn2c(=O)cc(COC(=O)Cc3ccccc3)nc2s1 | inactive: -1.19%
CCc1cc2c(s1)-n1c(C)nnc1CN=C2c1ccccc1Cl | inactive: 7.32%
CC(C)(C)c1ccc(C(=O)Nc2ccc(Cl)cc2C(=O)c2ccccc2)cc1 | inactive: -10.1%
CC(C(O)c1ccccc1)N(C)C/C=C/c1ccccc1 (stereo not given) | inactive: -7.66%
O=C(CCCN1CCC(n2c(=O)[nH]c3ccccc32)CC1)c1ccc(F)cc1 | inactive: -4.68%
CCC1(CC)C(=O)NC(=O)NC1=O | inactive: -7.75%
C[C@]12CC[C@H]3[C@@H](CCC4=CC(=O)CC[C@@H]43)[C@@H]1CC[C@@H]2OC(=O)CCC1CCCCC1 | inactive: -5.56%
C[C@]12CCC(=O)C(O)=C1CC[C@@H]1[C@H]3CCC(=O)[C@@]3(C)CC[C@@H]12 | inactive: -9.69%
CCCC[N+]1(C)[C@H]2CC(OC(=O)[C@H](CO)c3ccccc3)C[C@H]1[C@H]1O[C@H]12 (stereo not given in full) | inactive: -2.57%
O=C(Nc1cc(C(F)(F)F)cc(C(F)(F)F)c1)c1cccn(Cc2ccccc2Cl)c1=O | inactive: -16.7%
Nc1c(Cl)c(Cl)c(Cl)c(Cl)c1Cl | inactive: -2.06% [at 116 µM]
NC(=O)OCCCc1ccccc1 | inactive: -2.27%
CC(C)c1nn2c(=O)cc(COC(=O)Cc3ccccc3)nc2s1 | inactive: -0.944%
N=c1c2c(-c3ccccc3)c(-c3ccccc3)n(Cc3ccccc3)c2ncn1C1CCC(O)CC1 (stereo not given) | inactive: -19.8%

SMILES | activity change, negative = inhibition
OC(c1ccccc1)(c1ccccc1)C1CCNCC1 | inactive: -5.39%
CC(=Cc1csc(C)n1)[C@@H]1C[C@H]2O[C@]2(C)CCC[C@H](C)[C@@H](O)[C@@H](C)C(=O)C(C)(C)[C@@H](O)CC(=O)O1 | inactive: -13.5%
C[C@]12CCC(=O)C=C1CC[C@@H]1[C@@H]2CC[C@]2(C)C(=O)CC[C@@H]12 | inactive: 4.55%
Clc1ccc(C(c2ccc(Cl)cc2)C(Cl)(Cl)Cl)cc1 | inactive: -6.66%
Cc1ccc(NC(=O)c2cccn(Cc3ccccc3C)c2=O)c(C)c1 | inactive: -21.5%
COc1cc(N)c(Cl)cc1C(=O)NC1CN2CCC1CC2 (stereo not given) | inactive: 3.82%
COc1cc(OC)c(OC)cc1C=O | inactive
Fc1cc(Br)ccc1CBr | inactive: 12.3%
NN=C(N)N | inactive: 6.51%
CCCCCc1nc2ccccc2c(=O)n1-c1ccc(C)cc1 | inactive: -9.27%
CCCC(C)(COC(N)=O)COC(=O)NC(C)C (stereo not given) | inactive
CCCC1CCCCN1 (stereo not given) | inactive: -4.6%
Cc1ccc(NC(=O)CN2C(=O)CN=C(c3ccccc3)c3ccccc32)cc1 | inactive: -12.8%
CCN(Cc1ccc(Cl)nc1)/C(=C/[N+](=O)[O-])NC | inactive: -1.33%
CN1CC[C@]23c4c5ccc(O)c4O[C@H]2[C@@H](O)CC[C@H]3[C@H]1C5 | inactive: -2.87% [at 116 µM]
COc1cccc(-n2c(/C=C/c3ccccc3O)nc3ccccc3c2=O)c1 | inactive: -21.2%
CC(O)CN1CCN(CC(=O)[O-])CCN(CC(=O)[O-])CCN(CC(=O)[O-])CC1.[Gd+3] (stereo not given) | inactive: 10.3%
CCCCC/C=C\C/C=C\C/C=C\C/C=C\CCCC(=O)NCC(=O)O | inactive: 15%
O=C(N[C@H]1N=C(c2ccccc2F)c2cccc3c2N(CC3)C1=O)c1cc2ccccc2[nH]1 | inactive: -11.8%
CN1C2CCC(C)(C)C1CC(OC(=O)C(O)(c1cccs1)c1cccs1)C2 (stereo not given) | inactive: 1.86%
C=C1C[C@@H]2[C@H](CC[C@]3(C)C(=O)CC[C@@H]23)[C@@]2(C)C=CC(=O)C=C12 | inactive: -0.346%
CNC(C)Cc1ccccc1OC (stereo not given) | inactive: -0.989%
COc1ccccc1N1CCNCC1 | inactive: -4.76%
CCN(CC)CCSc1nc2ccccc2c(=O)n1-c1ccc(Cl)cc1 | inactive: -4.56%
CC(=O)[C@H]1CC[C@H]2[C@@H]3CC[C@H]4C[C@H](O)CC[C@]4(C)[C@H]3C(=O)C[C@]12C | inactive: -4.96%
Cc1cccc(Cn2cccc(C(=O)Nc3ccc4c(c3)OCCO4)c2=O)c1 | inactive: 0%
CCC(=O)O[C@@H]1C=C2CCC3C(CCC4(C)C3CC[C@@H]4OC(=O)CC)C2CC1 (stereo not given in full) | inactive: 14.3%

SMILES | activity change, negative = inhibition
Cc1ccc(Cn2cccc(C(=O)Nc3ccc4c(c3)OCO4)c2=O)cc1 | inactive: -13.1%
CNC(=O)N1N=C(c2ccc(N)cc2)c2cc3c(cc2CC1C)OCO3 (stereo not given) | inactive: 63.8%
C[C@H]1CNCCc2ccc(Cl)cc21 | inactive: -4.55%
CC1=NN=C(c2ccc(N)cc2)c2cc3c(cc2C1)OCO3 | inactive: -0.733%
Cn1c(=O)n(C)c2cc(CNCCc3ccc(F)cc3)ccc21 | inactive: -5.77%
CCOC(=O)C(c1c(O)c2ccccc2oc1=O)c1c(O)c2ccccc2oc1=O | inactive: -8.59%
Cc1ccc2nc(NC(=O)c3cccn(Cc4ccc(Cl)cc4)c3=O)sc2c1 | inactive: -16.1%
CCOP(=S)(OCC)Oc1ccc2c(C)c(Cl)c(=O)oc2c1 | inactive: 13.7%
COC[C@@H](NC(C)=O)C(=O)NCc1ccccc1 | inactive: -4.67%
CCOc1ccc(NC(=O)Cn2cc(C(=O)c3ccccc3)c3ccccc32)cc1 | inactive: -9.98%
CC(C)C12CN3CC(C(C)C)(CN(C1)C3c1ccccn1)C2=O (stereo not given) | inactive: 69.8%
CCOC(=O)NC(O)C(Cl)(Cl)Cl (stereo not given) | inactive: -2.62%
CC(=O)O[C@@]12CO[C@H]1C[C@H](O)[C@@]1(C)C(=O)[C@H](O)C3=C(C)[C@@H](O)C[C@@](O)([C@@H](OC(=O)c4ccccc4)[C@@H]21)C3(C)C | inactive: -1.79%
COc1ccc(C(c2ccc(OC)cc2)C(Cl)(Cl)Cl)cc1 | inactive: -9.64% [at 116 µM]
Cc1ccc(-n2c(/C=C\c3ccc(F)cc3)nc3ccccc3c2=O)cc1Cl | inactive: -5.82%
COc1ccc(NC(=O)c2sc3nc4c(cc3c2N)N2CCC4CC2)cc1OC | inactive: -30.4%
Oc1ccccc1-c1ccccc1 | inactive: -0.134%
Cc1cccc(CN2CC=C(c3noc(CCC(=O)Nc4ccc(C)c(F)c4)n3)CC2)c1 | inactive: -16.8%
O=C(NC(O)C(Cl)(Cl)Cl)NC(O)C(Cl)(Cl)Cl (stereo not given) | inactive: 2.28%
CC(=O)NC1CCSC1=O (stereo not given) | inactive: 13.4%
CCN(CC)CCN1C(=O)CN=C(c2ccccc2F)c2cc(Cl)ccc21 | inactive: 2.8%
O=C(COc1ccccc1F)N1CCN(Cc2cc(=O)n3nc(-c4ccccc4Cl)sc3n2)CC1 | inactive: -17.6%
Cc1ccc2c(c1)C(Cc1nc3ccccc3c(=O)n1-c1ccc(Br)cc1)C(=O)N2 (stereo not given) | inactive: -27.7%
CN1C(=O)CCS(=O)(=O)C1c1ccc(Cl)cc1 (stereo not given) | inactive
Cc1cccc(Cc2cnc[nH]2)c1C | inactive: 4.04%
O=C(COc1cc(Cl)ccc1Cl)Nc1ccc(Cl)cc1C(=O)c1ccccc1 | inactive: -2.62%
c1ccc2c(c1)sc1ccccc12 | inactive: -1.15%

SMILES | activity change, negative = inhibition
NC(=O)CS(=O)C(c1ccccc1)c1ccccc1 (stereo not given) | inactive: -0.694%
O=C(Nc1ccc(F)c([N+](=O)[O-])c1)c1cccn(Cc2ccccc2)c1=O | inactive: -12.9%
Cc1cccc(OCC(=O)N2CCN(CCc3ccccn3)CC2)c1 | inactive: -15.7%
C[C@]12CC[C@H]3[C@@H](CCC4=CC(=O)CC[C@@H]43)[C@@H]1CC[C@@H]2OC(=O)CCc1ccco1 | inactive: 0.73%
COP(=S)(OC)Oc1ccc(Sc2ccc(OP(=S)(OC)OC)cc2)cc1 | inactive: -0.603%
CCCCCCC(=O)CCCCCC/C=C/C[C@@H](O)[C@H](O)[C@@](N)(CO)C(=O)O | inactive: 0.163% [at 25.2 µM]
COc1ccc2c(c1OC)C(=O)O[C@H]2[C@@H]1c2cc3c(cc2CCN1C)OCO3 | inactive: 3.69%
CC1(C)CC/C(=C/c2ccc(Cl)cc2)C1(O)Cn1cncn1 (stereo not given) | inactive: -18.2% [at 116 µM]
CCOc1ccc(CN(CCc2ccc3c(c2)OCO3)Cc2ccc(C)cc2)cc1 | inactive: -21.9%
CC(C)Cc1nc2cccnc2n1C1CCNCC1 | inactive: -16.3%
CCN(CC)C(C)C(=O)c1ccccc1 (stereo not given) | inactive: 9.53%
COc1cc(CC#N)cc(OC)c1OC | inactive: 14.7%
CCC(C)C(C)(COC(N)=O)COC(N)=O (stereo not given) | inactive: 4.33%
O=C(N[C@@H]1N=C(c2ccccc2F)c2cccc3c2N(CC3)C1=O)c1cc2ccccc2[nH]1 | inactive: 6.43%
Cc1ccc(NC(=O)Cn2cc(C(=O)c3ccccc3)c3ccccc32)c(C)c1 | inactive: -29.8%
CC1(C)C(C=C(Cl)Cl)C1C(=O)OC(C#N)c1cccc(Oc2ccccc2)c1 (stereo not given) | inactive: -2.58%
Oc1cc(Cl)ccc1Oc1ccc(Cl)cc1Cl | inactive: -28%
CCCCC12CN3CC(C)(CN(C1)C3c1ccccn1)C2=O (stereo not given) | inactive: -9.12%
CC=C(C)C(=O)N[C@@H](c1ccccc1)[C@@H](O)C(=O)O[C@H]1C[C@@]2(O)[C@@H](OC(=O)c3ccccc3)[C@@H]3[C@]4(OC(C)=O)CO[C@@H]4C[C@H](O)[C@@]3(C)C(=O)[C@H](OC(C)=O)C(=C1C)C2(C)C | inactive: -15.2%
O=C(Nc1ccc2c(c1)OCO2)c1cccn(Cc2cccc([N+](=O)[O-])c2)c1=O | inactive: -6.37%
O=S1(=O)N(Cc2ccccc2Cl)CCCN1Cc1ccccc1Cl | inactive: -22.5%
C1CN2CCC1CC2 | inactive: -0.298%
Cc1ccccc1OCC(=O)N1CCN(CCc2ccccn2)CC1 | inactive: -13.1% [at 11.5 µM]
CC1=C2[C@H]3OC(=O)[C@@H](C)[C@@H]3CC[C@@]2(C)C=CC1=O | inactive: -3.22%
